# Data taken from ChEMBL document CHEMBL5606458, “ASAP - ZIKV NS2B-NS3 protease fluorescence single point” (2024).
# In all, about 2,700 compounds went through this assay and about 160 (5.9%) showed an effect of 50% or more. Some of the results follow.
# Target: Nonstructural protein 3 (Zika virus) (UniProt A0A024AXB9)
# [1] = PRVABC59, Concentration 50.0 uM, Number of replicates 1.0
# [2] = PRVABC59, Concentration 15.0 uM, Number of replicates 1.0
# [3] = PRVABC59, Concentration 10.0 uM, Number of replicates 1.0
# Sequence of UniProt A0A024AXB9 (A0A024AXB9 as listed by the source): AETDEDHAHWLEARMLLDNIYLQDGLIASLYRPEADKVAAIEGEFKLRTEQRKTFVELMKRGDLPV
compound,measurement,setting,value
Cc1cnccc1NC(=O)c1ccn(CC(C)C)n1,inhibition,"PRVABC59, Concentration 49.5 uM, Number of replicates 2.0, Standard deviation 0.9161267428246855 %",-1.61%
same,inhibition,"PRVABC59, Concentration 99.01 uM, Number of replicates 2.0, Standard deviation 1.0850438095173138 %",-1.8%
same,inhibition,"PRVABC59, Concentration 198.0 uM, Number of replicates 2.0, Standard deviation 1.387107269831935 %",-1.13%
COc1ccc([C@@H]2CCCN2C(=O)C2CCN(c3ccc(C=O)cc3)CC2)cc1,inhibition,[1],22.1%
O=C(Nc1ccc(C(F)(F)F)cn1)c1cc(Cl)ccc1NS(=O)(=O)c1ccc(Oc2ccccc2Cl)cc1,inhibition,[2],43.9%
N[C@@H]1CCCC[C@H]1C(=O)Nc1cccc2cccnc12,inhibition,"PRVABC59, Concentration 99.9 uM, Number of replicates 2.0, Standard deviation 1.8980185851288 %",-8.2%
COc1cc(Cc2cnc(N)c(C(F)F)c2)nc(N2CCNCC2)n1,inhibition,"PRVABC59, Concentration 49.5 uM, Number of replicates 2.0, Standard deviation 2.109695189069125 %",1.97%
same,inhibition,"PRVABC59, Concentration 99.01 uM, Number of replicates 2.0, Standard deviation 2.350656772053972 %",3.23%
same,inhibition,"PRVABC59, Concentration 198.0 uM, Number of replicates 2.0, Standard deviation 2.281444313247443 %",3.81%
O=C(Nc1cnn2c1CNCC2)c1cccc2ncccc12,inhibition,"PRVABC59, Concentration 49.5 uM, Number of replicates 2.0, Standard deviation 2.8356175456895425 %",-4.01%
same,inhibition,"PRVABC59, Concentration 99.01 uM, Number of replicates 2.0, Standard deviation 4.192539000273596 %",-3.8%
same,inhibition,"PRVABC59, Concentration 198.0 uM, Number of replicates 2.0, Standard deviation 2.5418114432516155 %",-2.88%
Cc1cnccc1NC(=O)c1cccn(C[C@@H](C)CN)c1=O,inhibition,"PRVABC59, Concentration 49.5 uM, Number of replicates 2.0, Standard deviation 0.2332713425650035 %",5.31%
same,inhibition,"PRVABC59, Concentration 99.01 uM, Number of replicates 2.0, Standard deviation 0.8664360298988266 %",7.03%
same,inhibition,"PRVABC59, Concentration 198.0 uM, Number of replicates 2.0, Standard deviation 1.2048077884836883 %",10.4%
O=Cc1ccc(N2CCC(C(=O)Nc3cc(C(F)(F)F)ccn3)CC2)cc1,inhibition,[1],19.4%
O=C(Nc1nc(Cl)nc2nc[nH]c12)c1cc(Cl)ccc1NS(=O)(=O)c1ccc(Oc2ccccc2Cl)cc1,inhibition,[2],22.5%
Cc1cnccc1NC(=O)c1cc(N2CCCC2)ncn1,inhibition,"PRVABC59, Concentration 49.5 uM, Number of replicates 2.0, Standard deviation 2.173764594392415 %",-2.9%
same,inhibition,"PRVABC59, Concentration 99.01 uM, Number of replicates 2.0, Standard deviation 3.074732675241127 %",-1.3%
same,inhibition,"PRVABC59, Concentration 198.0 uM, Number of replicates 2.0, Standard deviation 4.9093569632660845 %",-9.37%
C[C@@H](c1ccccc1)N(C(=O)c1cc(Cl)ccc1NS(=O)(=O)c1ccc(Oc2ccccc2Cl)cc1)[C@@H](C)c1ccccc1,inhibition,[2],20.6%
O=C(c1cc(Cl)ccc1NS(=O)(=O)c1ccc(Oc2ccccc2Cl)cc1)N1CCN(c2ccc([N+](=O)[O-])cc2C(F)(F)F)CC1,inhibition,[2],26.7%
CC(CNC(=O)c1cc(Cl)ccc1NS(=O)(=O)c1ccc(Oc2ccccc2Cl)cc1)(c1ccccc1)c1ccccc1,inhibition,[2],31.7%
Cc1cccc(CN2CCN(C(=O)C3CCN(c4ccc(C=O)cc4)CC3)CC2)c1,inhibition,[1],21.6%
CC[C@]1(c2ccc(NC(=O)c3cc(Cl)ccc3NS(=O)(=O)c3ccc(Oc4ccccc4Cl)cc3)cc2)CCC(=O)NC1=O,inhibition,[2],47.5%
Cn1c(CO)nnc1[C@H]1CCCN(C(=O)C2CCN(c3ccc(C=O)cc3)CC2)C1,inhibition,[1],28.4%
CN(C)C(=O)N1CCN(C(=O)c2cc(Cl)ccc2NS(=O)(=O)c2ccc(Oc3ccccc3Cl)cc2)CC1,inhibition,[2],-1.74%
C[C@H](NC(=O)c1cc(Cl)ccc1NS(=O)(=O)c1ccc(Oc2ccccc2Cl)cc1)c1ccccc1C(F)(F)F,inhibition,[2],42.7%
C[C@H](NC(=O)C1CCN(c2ccc(C=O)cc2)CC1)c1ccccc1C(F)(F)F,inhibition,[3],9.41%
NC(=O)c1ccc(Cl)c(NC(=O)C2CCN(c3ccc(C=O)cc3)CC2)c1,inhibition,[1],4.96%
O=C(c1cc(Cl)ccc1NS(=O)(=O)c1ccc(Oc2ccccc2Cl)cc1)N1CCC(N2CCOCC2)CC1,inhibition,[2],0.883%
CS(=O)(=O)N1CCC(NC(=O)C2CCN(c3ccc(C=O)cc3)CC2)CC1,inhibition,[1],19.7%
Cc1cnccc1NC(=O)c1cc(C2CCC2)n(C)c1C,inhibition,"PRVABC59, Concentration 49.5 uM, Number of replicates 2.0, Standard deviation 0.5289258793380732 %",0.895%
same,inhibition,"PRVABC59, Concentration 99.01 uM, Number of replicates 2.0, Standard deviation 0.14822405989184065 %",2.8%
same,inhibition,"PRVABC59, Concentration 198.0 uM, Number of replicates 2.0, Standard deviation 0.4618350507387342 %",7.47%
O=C(NCc1ccc2ccccc2n1)c1cc(Cl)ccc1NS(=O)(=O)c1ccc(Oc2ccccc2Cl)cc1,inhibition,[2],48.8%
O=C(NC[C@H](O)COc1ccccc1)c1cc(Cl)ccc1NS(=O)(=O)c1ccc(Oc2ccccc2Cl)cc1,inhibition,[2],47.3%
O=Cc1ccc(N2CCC(C(=O)Nc3ccc(OC(F)(F)F)cc3Cl)CC2)cc1,inhibition,[1],22.5%
CCCCCC(=O)N[C@H](C(=O)N1CCC[C@@H](N)C1)c1ccc(OCc2ccccc2)cc1,inhibition,"PRVABC59, Concentration 49.5 uM, Number of replicates 2.0, Standard deviation 1.2819566042319397 %",1.24%
same,inhibition,"PRVABC59, Concentration 99.01 uM, Number of replicates 2.0, Standard deviation 1.4296380445226269 %",2.71%
same,inhibition,"PRVABC59, Concentration 198.0 uM, Number of replicates 2.0, Standard deviation 1.2245250957414489 %",3.4%
O=Cc1ccc(N2CCC(C(=O)N3CCS[C@H]3c3ccc([N+](=O)[O-])cc3)CC2)cc1,inhibition,[1],50%
Cc1ccccc1OC1CN(C(=O)c2cc(Cl)ccc2NS(=O)(=O)c2ccc(Oc3ccccc3Cl)cc2)C1,inhibition,[2],-1.98%
O=Cc1ccc(N2CCC(C(=O)Nc3ccc([N+](=O)[O-])cc3C(F)(F)F)CC2)cc1,inhibition,[1],20.2%
O=C(NCc1ccc(Cl)cc1F)c1cc(Cl)ccc1NS(=O)(=O)c1ccc(Oc2ccccc2Cl)cc1,inhibition,[2],29.4%
O=C(NCc1ccc(F)cc1C(F)(F)F)c1cc(Cl)ccc1NS(=O)(=O)c1ccc(Oc2ccccc2Cl)cc1,inhibition,[2],32.6%
Cc1cc(CO)c2cccc(Cc3cccc(C(=O)Nc4nonc4C(N)=O)c3)c2n1,inhibition,"PRVABC59, Concentration 49.95 uM, Number of replicates 2.0, Standard deviation 1.609742570683987 %",20.1%
same,inhibition,"PRVABC59, Concentration 99.9 uM, Number of replicates 2.0, Standard deviation 0.8074931564941592 %",55.3%
O=C(NCc1ccc(F)c(Br)c1)c1cc(Cl)ccc1NS(=O)(=O)c1ccc(Oc2ccccc2Cl)cc1,inhibition,[2],31.4%
CN(C)c1ccc(CNC(=O)C2CCN(c3ccc(C=O)cc3)CC2)cc1,inhibition,[3],25.9%
O=C(Nc1ccc(Cl)c(Cl)c1)c1cc(Cl)ccc1NS(=O)(=O)c1ccc(Oc2ccccc2Cl)cc1,inhibition,[2],37.7%
Cc1cc(CO)c2cccc(Cc3ccccc3C(=O)N[C@H](Cc3c[nH]cn3)C(=O)O)c2n1,inhibition,"PRVABC59, Concentration 49.95 uM, Number of replicates 2.0, Standard deviation 0.8913883129164283 %",-9.87%
same,inhibition,"PRVABC59, Concentration 99.9 uM, Number of replicates 2.0, Standard deviation 0.26741635900501326 %",-7.8%
O=C(NCc1ccc(C(F)(F)F)nc1)c1cc(Cl)ccc1NS(=O)(=O)c1ccc(Oc2ccccc2Cl)cc1,inhibition,[2],26.3%
CN(C(=O)c1cc(Cl)ccc1NS(=O)(=O)c1ccc(Oc2ccccc2Cl)cc1)[C@H]1CCN(Cc2ccccc2)C1,inhibition,[2],18.4%
O=Cc1ccc(N2CCC(C(=O)N3CCOCC3)CC2)cc1,inhibition,[1],23.9%
O=C(NCc1cc(F)c(F)cc1F)c1cc(Cl)ccc1NS(=O)(=O)c1ccc(Oc2ccccc2Cl)cc1,inhibition,[2],35.4%
CCCCCC(=O)N[C@H](C(=O)N1CCC[C@@H](CN)C1)c1ccc(OCc2ccccc2)cc1,inhibition,"PRVABC59, Concentration 49.5 uM, Number of replicates 2.0, Standard deviation 1.3961060118473596 %",1.56%
same,inhibition,"PRVABC59, Concentration 99.01 uM, Number of replicates 2.0, Standard deviation 1.8906395148915127 %",3.7%
same,inhibition,"PRVABC59, Concentration 198.0 uM, Number of replicates 2.0, Standard deviation 0.7113673218088168 %",9.74%
O=C(N[C@H]1CCOc2ccc(F)cc21)c1cc(Cl)ccc1NS(=O)(=O)c1ccc(Oc2ccccc2Cl)cc1,inhibition,[2],41.9%
O=Cc1ccc(N2CCC(C(=O)N3CCN(Cc4ccc(C(F)(F)F)cc4)CC3)CC2)cc1,inhibition,[1],23.6%
C[C@@H](NC(=O)C1CCN(c2ccc(C=O)cc2)CC1)c1cccc(Br)c1,inhibition,[3],5.69%
